Consider 56 compounds from PMC4336329 (PLoS ONE, 2015).

The whole screen tested about 310,000 compounds, of which about 2,200 (0.71%) showed an effect of 50% or more. Effects have a minus sign here. Some of the results follow.

Sequence of human ether-à-go-go-related gene (hERG) potassium channel (Q12809 whole entry, looked up): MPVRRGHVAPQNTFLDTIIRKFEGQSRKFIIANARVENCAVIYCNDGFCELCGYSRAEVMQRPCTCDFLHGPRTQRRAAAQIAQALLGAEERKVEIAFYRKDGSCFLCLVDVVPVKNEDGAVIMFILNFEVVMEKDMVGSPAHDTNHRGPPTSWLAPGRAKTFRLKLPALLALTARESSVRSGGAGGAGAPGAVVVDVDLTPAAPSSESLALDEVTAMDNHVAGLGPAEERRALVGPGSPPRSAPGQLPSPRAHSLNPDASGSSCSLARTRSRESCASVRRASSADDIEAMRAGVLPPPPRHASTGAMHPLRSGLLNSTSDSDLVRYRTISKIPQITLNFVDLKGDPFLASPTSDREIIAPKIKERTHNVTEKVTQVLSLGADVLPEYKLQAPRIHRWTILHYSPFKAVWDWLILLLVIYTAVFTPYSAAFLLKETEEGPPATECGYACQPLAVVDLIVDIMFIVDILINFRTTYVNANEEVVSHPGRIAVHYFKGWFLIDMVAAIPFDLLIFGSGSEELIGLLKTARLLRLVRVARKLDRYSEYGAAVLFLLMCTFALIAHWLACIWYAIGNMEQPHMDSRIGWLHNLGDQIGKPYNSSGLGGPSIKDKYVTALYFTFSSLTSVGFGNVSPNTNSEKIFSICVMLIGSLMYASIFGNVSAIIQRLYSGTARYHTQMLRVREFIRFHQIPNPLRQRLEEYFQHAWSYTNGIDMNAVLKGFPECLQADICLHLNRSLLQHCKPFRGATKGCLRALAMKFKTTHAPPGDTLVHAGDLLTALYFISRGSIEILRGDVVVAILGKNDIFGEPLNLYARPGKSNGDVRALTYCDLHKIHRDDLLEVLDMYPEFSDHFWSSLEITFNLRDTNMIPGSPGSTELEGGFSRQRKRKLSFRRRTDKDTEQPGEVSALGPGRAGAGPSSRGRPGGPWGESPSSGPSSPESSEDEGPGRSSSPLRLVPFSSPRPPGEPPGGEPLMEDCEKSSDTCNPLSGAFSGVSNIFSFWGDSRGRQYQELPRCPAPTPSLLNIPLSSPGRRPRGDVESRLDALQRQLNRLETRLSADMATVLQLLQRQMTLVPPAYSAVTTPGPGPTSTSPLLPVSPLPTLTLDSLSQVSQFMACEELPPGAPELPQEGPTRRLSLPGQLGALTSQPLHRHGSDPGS

This assay has as its target human ether-à-go-go-related gene (hERG) potassium channel (human, UniProt Q12809). The assay can be described thus: primary screen, population patch clamp on CHO cells stably expressing hERG.
Consider `c1cnc2c(OCc3nc4ccccc4[nH]3)cccc2c1`, for which the “hERG current change (%, negative = inhibition) at 1uM” value is on record as 11.3%.

Consider `CC1Sc2ccc(S(=O)(=O)CCC(=O)Nc3cc(F)ccc3F)cc2NC1=O` (centres unmarked), for which the “hERG current change (%, negative = inhibition) at 1uM” value is listed as 7.87%.

For `COc1ccc(-c2cc(C(=O)Nc3nc4c(C)cccc4s3)c3ccccc3n2)cc1OC`, the “hERG current change (%, negative = inhibition) at 1uM” value is -9.29%.

Consider `COc1ccccc1CCNC(=O)CCn1c(=O)c2cccn2c2ccc(F)cc21`, for which the “hERG current change (%, negative = inhibition) at 1uM” value amounted to 11.8%.

`CNC(=O)COC(=O)c1ccc(Cl)c(S(=O)(=O)N2CCCC2)c1`: the “hERG current change (%, negative = inhibition) at 1uM” value is 7.72%.

For the compound `Cc1cccc(C)c1OCC(O)CNS(=O)(=O)c1ccccc1C(=O)N1CCCCC1` (centres unmarked), the “hERG current change (%, negative = inhibition) at 1uM” value amounted to 0.147%.

As to `Nc1nnc(SCc2nnc(-c3ccccc3)o2)s1`, the “hERG current change (%, negative = inhibition) at 1uM” value turned out to be 0.773%.

Regarding `Cc1ccc(S(=O)(=O)CCC(=O)c2cccc([N+](=O)[O-])c2)cc1`, the “hERG current change (%, negative = inhibition) at 1uM” value was determined as 2.25%.

On to `COc1ccccc1OCCNc1cc(N2CCCCC2)ccc1[N+](=O)[O-]`, for which the “hERG current change (%, negative = inhibition) at 1uM” value is listed as 14.6%.

As for `COc1ccc(C)cc1NC(=O)CSc1nc(=O)n(CCCN2CCOCC2)c2c1CCCC2`, the “hERG current change (%, negative = inhibition) at 1uM” value is listed as -3.06%.

Consider `CC(=O)c1ccc(S(=O)(=O)N(C)CC(=O)N2CCCCCC2)cc1`, for which the “hERG current change (%, negative = inhibition) at 1uM” value is recorded as 12.7%.

Take `Cc1ccc(C(=O)CCC(=O)Nc2ccccc2F)cc1`: the “hERG current change (%, negative = inhibition) at 1uM” value is 12.9%.

As for `Cn1c(=O)oc2cc(S(=O)(=O)N3CCC(C(=O)N4CCN(c5ccc(F)cc5)CC4)CC3)ccc21`, the “hERG current change (%, negative = inhibition) at 1uM” value amounted to 1.78%.

As to `Cc1ccc(C2=NN(C(=O)c3cccs3)C(c3ccccc3O)C2)cc1` (centres unmarked), the “hERG current change (%, negative = inhibition) at 1uM” value was found to be 15.4%.

As to `CC(Sc1sc(=S)sc1SC(C)C(=O)O)C(=O)O` (centres unmarked), the “hERG current change (%, negative = inhibition) at 1uM” value was -4.45%.

For `CC[C@H](C)[C@@H](CNC)NC[C@@H](Cc1ccc(O)cc1)NCC(C)(C)C`, the “hERG current change (%, negative = inhibition) at 1uM” value is recorded as 9.94%.

For the compound `Cc1nc(C)c(-c2csc(NCc3ccco3)n2)s1`, the “hERG current change (%, negative = inhibition) at 1uM” value is 3.94%.

Take `COC(=O)c1ccc(N2CCOCC2)c(NC(=O)c2cccs2)c1`: the “hERG current change (%, negative = inhibition) at 1uM” value is reported as 0.514%.

For the compound `CC(=O)N1CCOc2ccc(S(=O)(=O)Nc3ncccc3C)cc21`, the “hERG current change (%, negative = inhibition) at 1uM” value is recorded as 19%.

With `O=c1[nH]c2cccnc2n1-c1ccc([N+](=O)[O-])cc1`, the “hERG current change (%, negative = inhibition) at 1uM” value is reported as 4.31%.

Regarding `S=C(NCCCNC(=S)Nc1ccccc1)Nc1ccccc1`, the “hERG current change (%, negative = inhibition) at 1uM” value is reported as 9.91%.

For `CCOc1ccccc1C(=O)N(CN1CCCC1=O)c1ccc(C)c(Cl)c1`, the “hERG current change (%, negative = inhibition) at 1uM” value was 8.68%.

As to `Cc1noc(C)c1COC(=O)c1cccc(S(=O)(=O)N2c3ccccc3CC2C)c1` (centres unmarked), the “hERG current change (%, negative = inhibition) at 1uM” value stood at 10.5%.

For the compound `CCN(CC)c1ccc(/C=N/NC(=S)NC)c(O)c1`, the “hERG current change (%, negative = inhibition) at 1uM” value came out at 4.81%.

Turning to `CC(C)OC(=O)c1ccc(COC(=O)c2cccc(-c3nnc(-c4ccccc4)o3)c2)cc1`, the “hERG current change (%, negative = inhibition) at 1uM” value is -0.142%.

With `CC1=C(C(=O)Nc2ccccn2)C(c2ccccc2)n2ncnc2N1` (centres unmarked), the “hERG current change (%, negative = inhibition) at 1uM” value stood at 17.3%.

With `Cc1ccc(-c2c3c([nH]c(=S)c2C#N)CCCC3)o1`, the “hERG current change (%, negative = inhibition) at 1uM” value was 2.74%.

Regarding `Nc1ccc2nc(COc3ccccc3)[nH]c2c1`, the “hERG current change (%, negative = inhibition) at 1uM” value was found to be 11.9%.

As for `CCOC(=O)Nc1nnc(-c2ccccc2OC)s1`, the “hERG current change (%, negative = inhibition) at 1uM” value is given as 1.2%.

Turning to `CSc1nc(-c2ccccc2)nc(N2CCN(C)CC2)c1C(C)=O`, the “hERG current change (%, negative = inhibition) at 1uM” value was 2.05%.

In the case of `O=C(c1ccco1)N1CCN(C(=O)c2oc(=O)c3ccccc3c2-c2ccccc2)CC1`, the “hERG current change (%, negative = inhibition) at 1uM” value is recorded as -26.4%.

Take `COc1ccccc1NC(=O)CN(Cc1ccco1)C(=O)c1ccc(-n2nc(C)cc2C)cc1`: the “hERG current change (%, negative = inhibition) at 1uM” value is given as -18.9%.

Take `CCOC(=O)C1(CCOc2ccccc2)CCN(Cc2ccc(OC)cc2)CC1`: the “hERG current change (%, negative = inhibition) at 1uM” value is listed as -77.4%.

Take `CCCCN(C(=O)CCNC(=O)NC12CC3CC(CC(C3)C1)C2)c1c(N)n(CCC)c(=O)[nH]c1=O`: the “hERG current change (%, negative = inhibition) at 1uM” value amounted to 10.5%.

Turning to `CCN(CC)CCCN(C(=O)c1ccc(Br)cc1)c1nc(-c2ccc(OC)cc2)cs1.Cl`, the “hERG current change (%, negative = inhibition) at 1uM” value is reported as -43.6%.

As for `Nc1cc(N2CCCCC2)c([N+](=O)[O-])cc1Cl`, the “hERG current change (%, negative = inhibition) at 1uM” value is 5.06%.

As for `CC(C)NC(=S)NC(=O)/C=C/c1ccc(F)cc1`, the “hERG current change (%, negative = inhibition) at 1uM” value was determined as 10.3%.

Consider `O=C(c1ccc(S(=O)(=O)NCC2CCCO2)cc1)N1CCc2ccccc21` (centres unmarked), for which the “hERG current change (%, negative = inhibition) at 1uM” value is listed as 9.08%.

Take `c1ccc(-n2ncc3c(NCc4ccccn4)ncnc32)cc1`: the “hERG current change (%, negative = inhibition) at 1uM” value is 5.75%.

Consider `COCCN(Cc1cc2ccc(C)cc2n2nnnc12)Cc1nnnn1C(C)(C)C`, for which the “hERG current change (%, negative = inhibition) at 1uM” value was -3.14%.

Take `Cc1cc(C)nc(-n2nc(C)c3c(=O)[nH]c(C(F)(F)F)nc32)n1`: the “hERG current change (%, negative = inhibition) at 1uM” value worked out at 14.3%.

For `CCCCNC(=O)c1ccc2c(c1)N(C)C(=O)c1ccccc1S2`, the “hERG current change (%, negative = inhibition) at 1uM” value was 19.9%.

With `C=C(C)c1cccc(C(C)(C)NC(=O)N2CCN(CC(N)=O)CC2)c1`, the “hERG current change (%, negative = inhibition) at 1uM” value is on record as 6.82%.

Turning to `CCCN1C(=O)S/C(=C\c2ccc(N3CCOCC3)o2)C1=O`, the “hERG current change (%, negative = inhibition) at 1uM” value is listed as 2.6%.

As to `CCC1(c2ccc(F)cc2)NC(=O)NC1=O` (centres unmarked), the “hERG current change (%, negative = inhibition) at 1uM” value worked out at 19.2%.

Consider `COC(=O)C[C@H]1c2cc(C(F)(F)F)ccc2S(=O)(=O)N1C(C)(C)C`, for which the “hERG current change (%, negative = inhibition) at 1uM” value came to 6.16%.

On to `COc1cc(C)c(CN2CCC(n3nccc3NC(=O)C3CCOC3)CC2)cc1C` (centres unmarked), for which the “hERG current change (%, negative = inhibition) at 1uM” value turned out to be 6.94%.

With `COc1ccc(OCCOC(=O)CNS(=O)(=O)c2ccc(SC)c([N+](=O)[O-])c2)cc1`, the “hERG current change (%, negative = inhibition) at 1uM” value was -15.7%.

On to `COc1cc2c(cc1OC)CN(C(=S)Nc1ccc(Cl)cc1)CC2`, for which the “hERG current change (%, negative = inhibition) at 1uM” value was found to be 15%.

With `CCC1(C)Cc2c(C#N)c(N)sc(=S)c2CO1` (centres unmarked), the “hERG current change (%, negative = inhibition) at 1uM” value is 3.61%.

In the case of `CCCN(C(=O)COC(=O)COc1c(C)cccc1C)c1c(N)n(Cc2ccccc2)c(=O)[nH]c1=O`, the “hERG current change (%, negative = inhibition) at 1uM” value is recorded as 5.65%.

`O=C(Cc1ccccc1)NCCc1cccc(Cl)c1`: the “hERG current change (%, negative = inhibition) at 1uM” value came out at 3.39%.

On to `CC1=Nc2cc(C(=O)NCC3CCCO3)ccc2Sc2ccc(C)cc21` (centres unmarked), for which the “hERG current change (%, negative = inhibition) at 1uM” value turned out to be 13.9%.

With `Cc1nn(CC(=O)NCCc2ccc(Cl)cc2)c(C)c1[N+](=O)[O-]`, the “hERG current change (%, negative = inhibition) at 1uM” value is -0.925%.

Regarding `CC(=O)Nc1ccc(S(=O)(=O)N2CCCCC2C(=O)O)cc1` (centres unmarked), the “hERG current change (%, negative = inhibition) at 1uM” value was 15.1%.

In the case of `COc1cc2[nH]c(=O)n(CCC(=O)N3CCN(Cc4ccc5c(c4)OCO5)CC3)c(=O)c2cc1OC`, the “hERG current change (%, negative = inhibition) at 1uM” value is given as 12.8%.
